Measured values from the supplement of paper PMC7826260.
The list shows a part of the results. One pool of 16,384 single-stranded DNAs met each Rep nickase domain in vitro (3 µM enzyme, 1 h, 37 °C); shown is the middle of each 90-letter strand. Values are log2 of uncut reads against the no-enzyme pool; the lower, the more was cut; hits are not called. Shares of all reads are compared; uncut strands gain when others are lost, and binding without cutting may add a little.

Assays:
Assay in all cases: uncleaved DNA left, log2 of reads against the no-enzyme library (log2 ratio); higher = less cleavage (more negative = more Rep cleavage of the k-mer); sequences stand for … in CTCGTCCG…ACCGGAGA
[1] = test system: T1, Rep nickase domain of Muscovy duck circovirus
T1 sequence (residues 1-111 of Rep, tag left off): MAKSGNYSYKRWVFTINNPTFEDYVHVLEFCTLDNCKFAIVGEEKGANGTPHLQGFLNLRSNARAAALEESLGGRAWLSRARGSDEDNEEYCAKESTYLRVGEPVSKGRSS
Description: (§1)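 A pool of 90-nt single-stranded DNAs with seven random bases just before the constant AC of the nick site (name = the seven bases) was cut by 3 µM recombinant His6-SUMO-tagged Rep nickase domain (300 nM DNA, 50 mM HEPES pH 8.0, 50 mM NaCl, 1 mM MnCl2, 1 h, 37 °C, three replicates). Uncut DNA was amplified and sequenced.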

[2] = test system: T2, Rep nickase domain of banana bunchy top virus
T2 sequence (residues 1-94 of Rep, tag left off): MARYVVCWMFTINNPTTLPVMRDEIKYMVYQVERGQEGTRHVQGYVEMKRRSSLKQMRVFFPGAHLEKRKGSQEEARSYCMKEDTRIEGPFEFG
Description: as §1

[3] = test system: T3, Rep nickase domain of cabbage leaf curl virus
T3 sequence (residues 1-116 of Rep, tag left off): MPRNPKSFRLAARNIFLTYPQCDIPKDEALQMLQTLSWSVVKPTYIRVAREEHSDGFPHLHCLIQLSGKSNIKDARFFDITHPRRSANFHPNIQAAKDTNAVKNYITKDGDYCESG
Description: as §1

[4] = test system: T4, Rep nickase domain of chickpea chlorotic dwarf virus
T4 sequence (residues 1-124 of Rep, tag left off): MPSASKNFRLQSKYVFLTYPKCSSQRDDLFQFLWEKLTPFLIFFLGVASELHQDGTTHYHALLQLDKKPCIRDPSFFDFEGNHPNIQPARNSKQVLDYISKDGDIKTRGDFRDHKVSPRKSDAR
Description: as §1

[5] = test system: T5, Rep nickase domain of faba bean necrotic yellows virus
T5 sequence (residues 1-98 of Rep, tag left off): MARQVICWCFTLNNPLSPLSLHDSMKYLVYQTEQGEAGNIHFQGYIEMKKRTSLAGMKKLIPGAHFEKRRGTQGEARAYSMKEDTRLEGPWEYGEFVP
Description: as §1

[6] = test system: T6, Rep nickase domain of maize striate mosaic virus
T6 sequence (residues 1-117 of Rep, tag left off): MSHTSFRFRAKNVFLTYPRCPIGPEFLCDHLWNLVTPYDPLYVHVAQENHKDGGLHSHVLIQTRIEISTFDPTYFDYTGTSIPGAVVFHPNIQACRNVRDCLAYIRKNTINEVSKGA
Description: as §1

[7] = test system: T7, Rep nickase domain of porcine circovirus 2
T7 sequence (residues 2-116 of Rep, tag left off): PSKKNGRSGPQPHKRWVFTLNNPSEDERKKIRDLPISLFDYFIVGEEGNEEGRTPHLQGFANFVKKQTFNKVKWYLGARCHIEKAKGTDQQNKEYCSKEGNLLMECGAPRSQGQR
Description: as §1

[8] = test system: T8, Rep nickase domain of tomato yellow leaf curl virus
T8 sequence (residues 1-136 of Rep, tag left off): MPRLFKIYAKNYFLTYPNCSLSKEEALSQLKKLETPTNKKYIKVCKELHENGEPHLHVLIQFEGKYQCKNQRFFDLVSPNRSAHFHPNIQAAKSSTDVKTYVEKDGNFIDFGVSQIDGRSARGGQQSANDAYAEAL
Description: as §1

[9] = test system: T9, Rep nickase domain of wheat dwarf virus
T9 sequence (residues 1-137 of Rep, tag left off): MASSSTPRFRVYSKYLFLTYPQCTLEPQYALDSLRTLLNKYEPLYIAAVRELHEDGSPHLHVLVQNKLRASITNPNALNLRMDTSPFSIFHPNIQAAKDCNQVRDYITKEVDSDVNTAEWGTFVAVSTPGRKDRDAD
Description: as §1

| Sequence | uncleaved DNA left (log2) [1] | uncleaved DNA left (log2) [2] | uncleaved DNA left (log2) [3] | uncleaved DNA left (log2) [4] | uncleaved DNA left (log2) [5] | uncleaved DNA left (log2) [6] | uncleaved DNA left (log2) [7] | uncleaved DNA left (log2) [8] | uncleaved DNA left (log2) [9] |
| --- | --- | --- | --- | --- | --- | --- | --- | --- | --- |
| TACATGA | -0.0284 | 0.0146 | -0.168 | -0.65 | -0.013 | -0.846 | 0.0754 | -0.0728 | -0.0009 |
| TATCTTG | -0.0321 | -0.0189 | -0.482 | -2.41 | 0.0863 | -1.12 | 0.1 | -0.00859 | -0.203 |
| GGACCCA | -0.0471 | 0.0687 | 0.506 | 0.984 | 0.00554 | 2 | 0.0875 | 0.162 | -0.0467 |
| TGAAAAG | 0.0978 | 0.0325 | -0.552 | -0.545 | 0.0911 | -1.03 | 0.14 | 0.0205 | 0.00806 |
| AATCCTT | -0.262 | -0.185 | -0.194 | -2.6 | -0.104 | -0.182 | -1.78 | -0.17 | -0.163 |
| TCGGTTT | 0.00811 | -0.19 | 0.0897 | -0.547 | -0.115 | 1.06 | -0.159 | 0.0252 | -0.169 |
| GATAAGA | 0.0759 | 0.0144 | 0.0477 | 0.277 | 0.0337 | -0.504 | 0.0247 | 0.0471 | 0.0397 |
| GCTCTAG | -0.067 | -0.137 | -0.707 | -0.483 | -0.0629 | -0.995 | 0.0366 | -0.124 | -0.234 |
| AACGCGC | -0.0105 | 0.00395 | -0.764 | -0.0446 | 0.0932 | -0.84 | 0.0902 | -0.0917 | -0.198 |
| AGGCGAA | -0.0555 | -0.122 | -0.122 | -0.0366 | 0.042 | -0.54 | 0.0287 | -0.0696 | 0.0476 |
| CCATGAC | 0.254 | 0.0853 | 0.0658 | 0.0144 | 0.119 | -0.557 | 0.406 | 0.154 | 0.0964 |
| CTCATAA | 0.118 | 0.0847 | -0.0626 | -0.344 | -0.0409 | -0.719 | 0.0235 | -0.00345 | 0.0484 |
| GCAACGC | -0.0728 | 0.061 | -0.0994 | -0.0645 | 0.0117 | -0.624 | 0.102 | -0.0238 | -0.00853 |
| ATAGCAG | 0.128 | -0.00247 | -0.539 | -0.412 | 0.102 | -0.965 | 0.26 | 0.0561 | -0.0362 |
| AGCGTGA | 0.0421 | 0.0669 | 0.134 | 0.523 | 0.0416 | 1.09 | -0.0336 | 0.134 | 0.255 |
| TGGATAG | -0.0633 | 0.0474 | -0.0614 | 0.745 | -0.103 | -0.259 | 0.0109 | 0.0127 | 0.0194 |
| CGACGAG | 0.095 | -0.00251 | -0.0448 | 0.398 | 0.0107 | 0.293 | 0.0341 | -0.0752 | 0.00821 |
| GAATGTT | -2.78 | -2.22 | -3.03 | -2.73 | -0.856 | -2.16 | -3.29 | -1.68 | -3.08 |
| ATCGAGC | 0.122 | 0.0371 | 0.0965 | 0.406 | 0.102 | -0.589 | 0.236 | 0.0589 | 0.097 |
| TAATGCC | -0.0481 | -0.042 | -3.59 | -2.9 | 0.0235 | -2.61 | -0.107 | -0.0334 | -2.12 |
| AACTTAA | -0.0486 | 0.0598 | -0.154 | -0.773 | 0.063 | -0.57 | -2.04 | 0.125 | 0.0729 |
| ATCTTAT | -0.169 | -0.153 | -0.0478 | -0.823 | 0.0161 | -0.523 | -2.61 | 0.00418 | -0.218 |
| TACTTTC | -0.956 | -0.00618 | -0.269 | -1.48 | -0.00035 | -0.716 | -2.42 | 0.0183 | 0.0491 |
| GTTACCA | 0.124 | 0.126 | 0.428 | 0.903 | 0.0624 | 1.9 | 0.143 | 0.189 | 0.203 |
| TTTTGCC | -0.119 | -0.159 | -0.617 | -0.704 | 0.00261 | -1.16 | 0.0892 | 0.00666 | -0.0888 |
| GTGCGCG | 0.013 | -0.134 | -0.71 | 0.0333 | -0.0582 | -0.732 | 0.0147 | -0.014 | -0.19 |
| GCAAGTG | 0.153 | 0.137 | -0.304 | -0.0814 | 0.0299 | -0.728 | 0.182 | 0.0421 | 0.0457 |
| CCTTGGA | -0.0653 | -0.026 | -0.216 | -0.296 | 0.0384 | -0.99 | 0.109 | -0.0114 | 0.00191 |
| TTACGTT | 0.107 | -0.0252 | -0.899 | -2.84 | -0.054 | -0.721 | -0.343 | -0.0556 | -0.584 |
| CAGCCGT | 0.0522 | -0.0902 | -0.53 | -0.906 | 0.00464 | -0.976 | -0.288 | -0.124 | -0.14 |
